Source: publication PMC12820563
Some of the results follow. The list includes weakly bound sequences.

Target: T1, MBP-FoxP3dN (UniProt Q99JB6)
T1 sequence: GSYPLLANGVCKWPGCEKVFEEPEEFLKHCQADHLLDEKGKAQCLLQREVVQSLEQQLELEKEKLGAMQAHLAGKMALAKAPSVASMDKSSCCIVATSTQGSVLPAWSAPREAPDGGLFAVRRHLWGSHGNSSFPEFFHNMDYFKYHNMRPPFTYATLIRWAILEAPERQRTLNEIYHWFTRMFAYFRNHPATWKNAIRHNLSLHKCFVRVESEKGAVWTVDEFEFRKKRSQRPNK
Test: PD-seq (MBP pull-down with sequencing)
Conditions: 20 mM Tris-HCl pH 7.5, 100 mM NaCl, 1.5 mM MgCl2, 0.4 uM protein, 0.1 uM dsDNA library, 30 min, room temperature, amylose pull-down; high values mean tight binding; double strand, one strand shown

Row | Sequence | binding signal (RPM ratio (pull-down/input))
1 | GATGATTGTTCTCCCAGCTGATGAATTGAGAATGTCGAGTAAACAAATTTTCCTAATCTTTCTGTTCAAGCGCCATCTAC | 0.563
2 | GATGATTGTTCTCCCAGCTGATGAATTTGATTTATCGAGTAAACAAATTTTCCTAATCTTTCTGTTCAAGCGCCATCTAC | 2.99
3 | GATGATTGTTCTCCCAGCTGATGAATTGGGCCAGTCGAGTAAACAAATTTTCCTAATCTTTCTGTTCAAGCGCCATCTAC | 1.05
4 | GATGATTGTTCTCCCAGCTGATGAATTCCGGCGTTCGAGTAAACAAATTTTCCTAATCTTTCTGTTCAAGCGCCATCTAC | 1.07
5 | GATGATTGTTCTCCCAGCTGATGAATTTTACAACTCGAGTAAACAAATTTTCCTAATCTTTCTGTTCAAGCGCCATCTAC | 0.327
6 | GATGATTGTTCTCCCAGCTGATGAATTCCAGACATCGAGTAAACAAATTTTCCTAATCTTTCTGTTCAAGCGCCATCTAC | 0.3
7 | GATGATTGTTCTCCCAGCTGATGAATTCCTTAGATCGAGTAAACAAATTTTCCTAATCTTTCTGTTCAAGCGCCATCTAC | 0.189
8 | GATGATTGTTCTCCCAGCTGATGAATTTCTCTGTTCGAGTAAACAAATTTTCCTAATCTTTCTGTTCAAGCGCCATCTAC | 0.339
9 | GATGATTGTTCTCCCAGCTGATGAATTCCTTCTTTCGAGTAAACAAATTTTCCTAATCTTTCTGTTCAAGCGCCATCTAC | 0.237
10 | GATGATTGTTCTCCCAGCTGATGAATTCGGTTCATCGAGTAAACAAATTTTCCTAATCTTTCTGTTCAAGCGCCATCTAC | 0.682
11 | GATGATTGTTCTCCCAGCTGATGAATTTGTTCATTCGAGTAAACAAATTTTCCTAATCTTTCTGTTCAAGCGCCATCTAC | 2.23
12 | GATGATTGTTCTCCCAGCTGATGAATTGGCACTGTCGAGTAAACAAATTTTCCTAATCTTTCTGTTCAAGCGCCATCTAC | 0.397
13 | GATGATTGTTCTCCCAGCTGATGAATTTTATCACTCGAGTAAACAAATTTTCCTAATCTTTCTGTTCAAGCGCCATCTAC | 1.19
14 | GATGATTGTTCTCCCAGCTGATGAATTGCCTTGATCGAGTAAACAAATTTTCCTAATCTTTCTGTTCAAGCGCCATCTAC | 0.523
15 | GATGATTGTTCTCCCAGCTGATGAATTCTTTACCTCGAGTAAACAAATTTTCCTAATCTTTCTGTTCAAGCGCCATCTAC | 0.325
16 | GATGATTGTTCTCCCAGCTGATGAATTGAGTTTTTCGAGTAAACAAATTTTCCTAATCTTTCTGTTCAAGCGCCATCTAC | 1.67
17 | GATGATTGTTCTCCCAGCTGATGAATTTGATATGTCGAGTAAACAAATTTTCCTAATCTTTCTGTTCAAGCGCCATCTAC | 4.08
18 | GATGATTGTTCTCCCAGCTGATGAATTGCACGGCTCGAGTAAACAAATTTTCCTAATCTTTCTGTTCAAGCGCCATCTAC | 0.535
19 | GATGATTGTTCTCCCAGCTGATGAATTTAAAGGCTCGAGTAAACAAATTTTCCTAATCTTTCTGTTCAAGCGCCATCTAC | 0.392
20 | GATGATTGTTCTCCCAGCTGATGAATTCAGTCGATCGAGTAAACAAATTTTCCTAATCTTTCTGTTCAAGCGCCATCTAC | 0.304
21 | GATGATTGTTCTCCCAGCTGATGAATTGCTATATTCGAGTAAACAAATTTTCCTAATCTTTCTGTTCAAGCGCCATCTAC | 0.892

Row | Sequence | binding signal (RPM ratio (pull-down/input))
22 | GATGATTGTTCTCCCAGCTGATGAATTCCTGAGGTCGAGTAAACAAATTTTCCTAATCTTTCTGTTCAAGCGCCATCTAC | 0.165
23 | GATGATTGTTCTCCCAGCTGATGAATTCGCGATATCGAGTAAACAAATTTTCCTAATCTTTCTGTTCAAGCGCCATCTAC | 0.586
24 | GATGATTGTTCTCCCAGCTGATGAATTAAGTAGATCGAGTAAACAAATTTTCCTAATCTTTCTGTTCAAGCGCCATCTAC | 0.431
25 | GATGATTGTTCTCCCAGCTGATGAATTTTCAGACTCGAGTAAACAAATTTTCCTAATCTTTCTGTTCAAGCGCCATCTAC | 0.227
26 | GATGATTGTTCTCCCAGCTGATGAATTCGGAGAGTCGAGTAAACAAATTTTCCTAATCTTTCTGTTCAAGCGCCATCTAC | 0.24
27 | GATGATTGTTCTCCCAGCTGATGAATTCCCGCTTTCGAGTAAACAAATTTTCCTAATCTTTCTGTTCAAGCGCCATCTAC | 1.11
28 | GATGATTGTTCTCCCAGCTGATGAATTAAAGTGATCGAGTAAACAAATTTTCCTAATCTTTCTGTTCAAGCGCCATCTAC | 0.472
29 | GATGATTGTTCTCCCAGCTGATGAATTACCAGCGTCGAGTAAACAAATTTTCCTAATCTTTCTGTTCAAGCGCCATCTAC | 0.436
30 | GATGATTGTTCTCCCAGCTGATGAATTTCCTGCATCGAGTAAACAAATTTTCCTAATCTTTCTGTTCAAGCGCCATCTAC | 0.719
31 | GATGATTGTTCTCCCAGCTGATGAATTTTGATAGTCGAGTAAACAAATTTTCCTAATCTTTCTGTTCAAGCGCCATCTAC | 1.64
32 | GATGATTGTTCTCCCAGCTGATGAATTATTCTAATCGAGTAAACAAATTTTCCTAATCTTTCTGTTCAAGCGCCATCTAC | 0.362
33 | GATGATTGTTCTCCCAGCTGATGAATTGTACTGATCGAGTAAACAAATTTTCCTAATCTTTCTGTTCAAGCGCCATCTAC | 0.491
34 | GATGATTGTTCTCCCAGCTGATGAATTTACAGTTTCGAGTAAACAAATTTTCCTAATCTTTCTGTTCAAGCGCCATCTAC | 0.665
35 | GATGATTGTTCTCCCAGCTGATGAATTAGCGAGCTCGAGTAAACAAATTTTCCTAATCTTTCTGTTCAAGCGCCATCTAC | 0.313
36 | GATGATTGTTCTCCCAGCTGATGAATTACTTAATTCGAGTAAACAAATTTTCCTAATCTTTCTGTTCAAGCGCCATCTAC | 0.322
37 | GATGATTGTTCTCCCAGCTGATGAATTTGAGCAATCGAGTAAACAAATTTTCCTAATCTTTCTGTTCAAGCGCCATCTAC | 2.15
38 | GATGATTGTTCTCCCAGCTGATGAATTGGCCGAGTCGAGTAAACAAATTTTCCTAATCTTTCTGTTCAAGCGCCATCTAC | 0.215
39 | GATGATTGTTCTCCCAGCTGATGAATTGGACTGTTCGAGTAAACAAATTTTCCTAATCTTTCTGTTCAAGCGCCATCTAC | 0.423
40 | GATGATTGTTCTCCCAGCTGATGAATTAGACGAATCGAGTAAACAAATTTTCCTAATCTTTCTGTTCAAGCGCCATCTAC | 0.249
41 | GATGATTGTTCTCCCAGCTGATGAATTTATGTTATCGAGTAAACAAATTTTCCTAATCTTTCTGTTCAAGCGCCATCTAC | 3.24
42 | GATGATTGTTCTCCCAGCTGATGAATTGCTCTAATCGAGTAAACAAATTTTCCTAATCTTTCTGTTCAAGCGCCATCTAC | 0.438

Row | Sequence | binding signal (RPM ratio (pull-down/input))
43 | GATGATTGTTCTCCCAGCTGATGAATTAGTGTCATCGAGTAAACAAATTTTCCTAATCTTTCTGTTCAAGCGCCATCTAC | 1.75
44 | GATGATTGTTCTCCCAGCTGATGAATTGCTATCGTCGAGTAAACAAATTTTCCTAATCTTTCTGTTCAAGCGCCATCTAC | 0.891
45 | GATGATTGTTCTCCCAGCTGATGAATTAATTTGATCGAGTAAACAAATTTTCCTAATCTTTCTGTTCAAGCGCCATCTAC | 0.653
46 | GATGATTGTTCTCCCAGCTGATGAATTACGTGTTTCGAGTAAACAAATTTTCCTAATCTTTCTGTTCAAGCGCCATCTAC | 1.3
47 | GATGATTGTTCTCCCAGCTGATGAATTAATCGCATCGAGTAAACAAATTTTCCTAATCTTTCTGTTCAAGCGCCATCTAC | 1.04
48 | GATGATTGTTCTCCCAGCTGATGAATTCGTATCTTCGAGTAAACAAATTTTCCTAATCTTTCTGTTCAAGCGCCATCTAC | 1.59
49 | GATGATTGTTCTCCCAGCTGATGAATTGGTTCGCTCGAGTAAACAAATTTTCCTAATCTTTCTGTTCAAGCGCCATCTAC | 0.308
50 | GATGATTGTTCTCCCAGCTGATGAATTATCTGAATCGAGTAAACAAATTTTCCTAATCTTTCTGTTCAAGCGCCATCTAC | 0.229
51 | GATGATTGTTCTCCCAGCTGATGAATTGTTCATTTCGAGTAAACAAATTTTCCTAATCTTTCTGTTCAAGCGCCATCTAC | 0.475
52 | GATGATTGTTCTCCCAGCTGATGAATTAAGTAAATCGAGTAAACAAATTTTCCTAATCTTTCTGTTCAAGCGCCATCTAC | 0.357
53 | GATGATTGTTCTCCCAGCTGATGAATTTCACAATTCGAGTAAACAAATTTTCCTAATCTTTCTGTTCAAGCGCCATCTAC | 0.348
54 | GATGATTGTTCTCCCAGCTGATGAATTTAGAGGTTCGAGTAAACAAATTTTCCTAATCTTTCTGTTCAAGCGCCATCTAC | 0.465
55 | GATGATTGTTCTCCCAGCTGATGAATTGTGTCAGTCGAGTAAACAAATTTTCCTAATCTTTCTGTTCAAGCGCCATCTAC | 1.22
56 | GATGATTGTTCTCCCAGCTGATGAATTTCAGTGTTCGAGTAAACAAATTTTCCTAATCTTTCTGTTCAAGCGCCATCTAC | 0.747
57 | GATGATTGTTCTCCCAGCTGATGAATTCTTCGAATCGAGTAAACAAATTTTCCTAATCTTTCTGTTCAAGCGCCATCTAC | 0.202
58 | GATGATTGTTCTCCCAGCTGATGAATTGGAATGCTCGAGTAAACAAATTTTCCTAATCTTTCTGTTCAAGCGCCATCTAC | 0.721
59 | GATGATTGTTCTCCCAGCTGATGAATTAAATACATCGAGTAAACAAATTTTCCTAATCTTTCTGTTCAAGCGCCATCTAC | 0.687
60 | GATGATTGTTCTCCCAGCTGATGAATTAAGGGTATCGAGTAAACAAATTTTCCTAATCTTTCTGTTCAAGCGCCATCTAC | 0.641
61 | GATGATTGTTCTCCCAGCTGATGAATTAATAGCCTCGAGTAAACAAATTTTCCTAATCTTTCTGTTCAAGCGCCATCTAC | 0.628
62 | GATGATTGTTCTCCCAGCTGATGAATTGCACCATTCGAGTAAACAAATTTTCCTAATCTTTCTGTTCAAGCGCCATCTAC | 1.12
63 | GATGATTGTTCTCCCAGCTGATGAATTTAGATTGTCGAGTAAACAAATTTTCCTAATCTTTCTGTTCAAGCGCCATCTAC | 1.6
